{"source": "PubChem BioAssay AID686978", "about": "(National Center for Advancing Translational Sciences (NCATS), 2013)", "note": "“And” between values parts separate entries of the source, which are not always exact repeats. Identical values can stand only once. In all, about 420,000 compounds went through this assay and about 64,000 (15%) were called active. Inconclusive results, whose numbers are uncertain, are shown with a selection of clear calls. Calls follow the shape of the dose curve; as a rule, active = well fitted inhibition curve with a large enough effect; inconclusive = small, poorly fitted or top-dose-only effect; inactive = flat fitted curve, though single readings scatter. Potencies beside an inconclusive call are fits to weak or partial responses and may not hold up. % is scaled to controls: 0 for no effect and ±100 for the full control effect; potency is read from the fitted curve at half-maximal effect; tags tell the direction and shape of the fitted curve."}
{"assay": "qHTS for Inhibitors of human tyrosyl-DNA phosphodiesterase 1 (TDP1): qHTS in cells in absence of CPT; also: nearly all actives have a fitted effect of over 55% in size", "conditions": "DT40 Tdp1-/- hTDP1 cells, no CPT, ATP luminescence, 48 h; activity change, negative = growth inhibition: at 46.2 µM (top of the series)", "procedure,_shortened": "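No-CPT arm: Tdp1-/-;hTDP1 DT40 cells (400/well) plus compounds, incubated ≥48 hr at 37 °C. Readout CellTiter-Glo luminescence.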"}
{"smiles": "C=CCN(C(=O)CNC(=O)c1cccs1)C(C(=O)NC1CCCCC1)c1cccnc1", "note": "(centres undefined)", "activity change, negative = growth inhibition": "inactive: -21.1%"}
{"smiles": "O=C(N/N=C/c1ccccc1O)c1ccc2c(c1)OCO2", "Potency": "active: 4.11 µM"}
{"smiles": "CC(C)c1ccc(C2c3c(-c4ccccc4O)n[nH]c3C(=O)N2CCc2ccccc2)cc1", "note": "(centres undefined)", "Potency": "active: 11.6 µM"}
{"smiles": "Cc1onc(-c2ccccc2)c1C(=O)OCC(=O)Nc1ccccc1Cl", "Potency": "active: 18.4 µM"}
{"smiles": "CC(=O)Nc1ccccc1-c1nnc(SCc2ccccc2Cl)[nH]c1=O", "activity change, negative = growth inhibition": "inactive: -16.6%"}
{"smiles": "Cc1ccc(/C=C(/C#N)c2nc(CCN3C(=O)c4ccccc4C3=O)cs2)cc1", "Potency": "inconclusive: 16.4 µM [inhibitor, single point]"}
{"smiles": "CC(=C/c1ccccc1)/C=N/Nc1nc(N2CCCCC2)nc(N2CCCCC2)n1", "Potency": "inconclusive: 14.6 µM [inhibitor, partial curve]"}
{"smiles": "CC(=O)Oc1ccc(Nc2ccccc2)cc1", "Potency": "inconclusive: 23.1 µM [inhibitor, single point]"}
{"smiles": "C=CCOC(=O)N1CCC2CC1c1c(-c3ccc(C(F)(F)F)cc3)cccc12", "note": "(centres undefined)", "Potency": "inconclusive: 23.1 µM [inhibitor, single point]"}
{"smiles": "Cc1ccc(NC(=O)c2cccs2)cc1S(=O)(=O)Nc1cccc(Cl)c1", "Potency": "inconclusive: 10.3 µM [inhibitor, partial curve, poor fit]"}
{"smiles": "Cc1cccc(NC(=O)c2cccc(S(=O)(=O)N3CCCC3)c2)n1", "Potency": "inconclusive: 23.1 µM [inhibitor, single point]"}
{"smiles": "C=CCSc1nc2sc(C)c(C)c2c(=O)n1N", "Potency": "inconclusive: 20.6 µM [inhibitor, single point]"}
{"smiles": "COc1ccc(C(OCC(O)CN(C)C2CCCCC2)c2ccc(OC)cc2)cc1", "note": "(centres undefined)", "Potency": "inconclusive: 18.4 µM [inhibitor, single point]"}
{"smiles": "Cc1ccc(Cn2c(=O)c3c(nc4n3CCN4c3cc(C)cc(C)c3)n(C)c2=O)cc1", "activity change, negative = growth inhibition": "inactive: -11.7%"}
{"smiles": "Cc1ccc2nc(SCC(=O)Nc3cc(C(F)(F)F)ccc3N3CCOCC3)[nH]c2c1", "Potency": "active: 0.82 µM"}
{"smiles": "CCN(CC)CCn1c(=N)n(CC(O)COc2ccccc2C)c2ccccc21", "note": "(centres undefined)", "Potency": "active: 2.59 µM"}
{"smiles": "CCSC1=C(C#N)C(c2cccs2)C(C(=O)OC)=C(C)N1", "note": "(centres undefined)", "Potency": "inconclusive: 29.1 µM [inhibitor, single point]"}
{"smiles": "CCn1c(CSc2nnc(-c3ccc4c(c3)OCO4)o2)nc2cc(S(=O)(=O)N(C)C)ccc21", "Potency": "inconclusive: 18.4 µM [inhibitor, single point]"}
{"smiles": "Cc1cc(CNC[C@H]2O[C@@H](n3ccc(=O)[nH]c3=O)[C@H](O)[C@@H]2O)no1", "activity change, negative = growth inhibition": "inactive: 6.32%"}
{"smiles": "COc1ccc(CNC(=O)C(c2ccncc2)N(C(=O)Cc2cccs2)c2ccc(C)cc2)cc1", "note": "(centres undefined)", "activity change, negative = growth inhibition": "inactive: -24.7%"}
{"smiles": "COc1ccc(NC(=O)CCOc2ccc(C)cc2)cc1S(=O)(=O)N1CCCCC1", "Potency": "inconclusive: 20.6 µM [inhibitor, single point]"}
{"smiles": "CCN(CC)CCCNC(=O)C1c2ccccc2C(=O)N(C)C1c1ccc(OC)cc1", "note": "(centres undefined)", "Potency": "active: 2.31 µM"}
{"smiles": "CCOC(=O)C1(CCCc2ccccc2)CCN(C(=O)CCOC)CC1", "Potency": "inconclusive: 29.1 µM [inhibitor, single point]"}
{"smiles": "COCCCNC(=O)/C(C#N)=C/c1cccc(NC(=O)c2ccccc2Cl)c1", "Potency": "active: 2.59 µM"}
{"smiles": "O=C(O)c1ccc(NS(=O)(=O)c2cccc(C(=O)Nc3ccccc3[N+](=O)[O-])c2)cc1", "activity change, negative = growth inhibition": "inactive: -0.272%"}
{"smiles": "COc1ccc(-c2nc(CCNC(=O)c3cc(OC)c(OC)c(OC)c3)cs2)cc1", "Potency": "active: 13 µM"}
{"smiles": "C#CC1(O)CC[C@H]2[C@@H]3CCC4=CCCC[C@@H]4[C@H]3CC[C@@]21C", "note": "(some centres undefined)", "activity change, negative = growth inhibition": "inactive: -18.1% [at 21.1 µM]"}
{"smiles": "Cc1ccc(C(C)C)c(OCCCN(C)Cc2ccccc2)c1", "Potency": "active: 23.1 µM"}
{"smiles": "COc1ccc(NC(C)=O)cc1S(=O)(=O)Nc1ccc(OCc2ccccc2)cc1", "Potency": "active: 14.6 µM"}
{"smiles": "O=C(Nc1cccc(Cl)c1)C1COc2ccccc2O1", "note": "(centres undefined)", "activity change, negative = growth inhibition": "inactive: 7.86%"}
{"smiles": "Cc1nn(Cc2ccccc2)c(Cl)c1C(=O)OCC(=O)NC(=O)NC12CC3CC(CC(C3)C1)C2", "Potency": "inconclusive: 23.1 µM [inhibitor, single point]"}
{"smiles": "COC(=O)[C@@H]1CCCN1Cc1ccc2c(c1)CN(Cc1ccc3c(c1)CCO3)CCO2", "activity change, negative = growth inhibition": "inactive: -16.4%"}
{"smiles": "CCCN1CCN(CC2=C(C(=O)OCC)C(c3ccc(Cl)cc3)NC(=O)N2)CC1", "note": "(centres undefined)", "Potency": "active: 25.9 µM"}
{"smiles": "COc1ccc(Cl)cc1NC(=O)CCCn1c(=O)c2cccn2c2cccnc21", "Potency": "inconclusive: 18.4 µM [inhibitor, single point] and inconclusive: 20.6 µM [inhibitor, single point]"}
{"smiles": "COc1cc(CNC(=O)c2cc(-c3cc(F)ccc3OCC3CCCO3)n[nH]2)cc(OC)c1", "note": "(centres undefined)", "Potency": "active: 20.6 µM"}
{"smiles": "COc1ccc(CNC(=O)Cc2c(C)c3c(cc(C)c4c(C)coc43)oc2=O)cc1", "activity change, negative = growth inhibition": "inactive: -5.15%"}
{"smiles": "CCOC(=O)C1=C(COC(=O)c2ccc(Cl)c(S(=O)(=O)N3CCOCC3)c2)NC(=O)NC1C", "note": "(centres undefined)", "activity change, negative = growth inhibition": "inactive: 1.56%"}
{"smiles": "CCOC(=O)N1CC(=O)Nc2ccc(Br)cc2C1c1ccccc1", "note": "(centres undefined)", "activity change, negative = growth inhibition": "inactive: -23.7%"}
{"smiles": "O=C(c1ccccc1)N1CCC(CC2CC(c3ccc(Cl)cc3)=NO2)(C(=O)NCC2CCCCC2)CC1", "note": "(centres undefined)", "Potency": "inconclusive: 18.4 µM [inhibitor, single point]"}
{"smiles": "CCn1c(CSCc2ccc(F)cc2)nnc1SCC(=O)N1CCN(c2ccccc2)CC1", "Potency": "active: 23.1 µM"}
{"smiles": "CCCn1c(COc2ccccc2)nc2ccccc21", "Potency": "inconclusive: 20.6 µM [inhibitor, single point]"}
{"smiles": "COC(=O)c1c(NC(=O)c2ccc(S(=O)(=O)N3CCCCC3C)cc2)sc2c1CCN(C(C)C)C2", "note": "(centres undefined)", "Potency": "inconclusive: 29.1 µM [inhibitor, single point]"}
{"smiles": "Cc1ccccc1Cn1cnc2c([N+](=O)[O-])c(C)c(C)cc21", "Potency": "inconclusive: 18.4 µM [inhibitor, single point]"}
{"smiles": "Cc1cccc(N(Cc2ccccc2)C(=O)CSC(C)C(=O)Nc2cc(C)on2)c1", "note": "(centres undefined)", "Potency": "active: 18.4 µM"}
{"smiles": "CCNC(=O)C1(C)CCN(Cc2csc(-c3ccccc3)n2)C1", "note": "(centres undefined)", "Potency": "active: 11.6 µM"}
{"smiles": "CCCCOc1ccc(/C=C/C(=O)OCC(=O)NC2CCS(=O)(=O)C2)cc1OCC", "note": "(centres undefined)", "activity change, negative = growth inhibition": "inactive: -1.67%"}
{"smiles": "CCOC(=O)N1CCc2c(sc(NCc3ccc(OC)c(Br)c3)c2C(=O)Nc2cc(OC)ccc2OC)C1", "Potency": "inconclusive: 29.1 µM [inhibitor, single point]"}
{"smiles": "C=CCN(C(=O)C1=NN(C2CCS(=O)(=O)C2)C(=O)CC1)c1nc(-c2ccc([N+](=O)[O-])cc2)cs1", "note": "(centres undefined)", "Potency": "active: 18.4 µM"}
{"smiles": "CCOC(=O)CNC(=O)CNC(=O)c1ccc(OCC(C)C)cc1", "Potency": "active: 20.6 µM"}
{"smiles": "COc1ccc(NC(=O)CCNC(=O)c2ccc([N+](=O)[O-])cc2)cc1S(=O)(=O)N1CCOCC1", "activity change, negative = growth inhibition": "inactive: -8.24%"}
{"smiles": "Cn1cc(S(=O)(=O)N2CCN(c3ccc(F)cc3)CC2)c(=O)n(C)c1=O", "activity change, negative = growth inhibition": "inactive: -26.6%"}
{"smiles": "O=C(NC(=S)Nc1ccccc1N1CCCC1)c1ccc(-c2cccc([N+](=O)[O-])c2)o1", "activity change, negative = growth inhibition": "inconclusive: -32% [inhibitor]"}
{"smiles": "CC(C)(C)c1ccc(/C=N/NC(=O)C2CCCC2)cc1", "Potency": "active: 13 µM"}
{"smiles": "Cc1cc(-c2nnc(SCC(=O)Nc3ccccc3Cl)n2C)no1", "activity change, negative = growth inhibition": "inactive: -5.95%"}
{"smiles": "COc1ccc(-c2noc(CSc3nnc(-c4ccncc4)n3-c3ccccc3)n2)cc1", "Potency": "active: 23.1 µM"}
{"smiles": "O=C(O)C1C=CCC(C(=O)O)C1", "note": "(centres undefined)", "activity change, negative = growth inhibition": "inactive: 16.2%"}
{"smiles": "Cc1ccccc1-c1noc(CSc2nnc(Cc3ccccc3)n2-c2ccc(F)cc2)n1", "Potency": "active: 9.2 µM"}
{"smiles": "CCOC(COC(=O)c1ccccc1C(=O)O)c1ccccc1", "note": "(centres undefined)", "activity change, negative = growth inhibition": "inactive: -6.07%"}
{"smiles": "CN(C(=O)c1ccc(NC(=O)Cc2ccc(NC(=O)C3CCN(C(=O)C4CCCCC4)CC3)cc2)cc1)C1CC1", "Potency": "inconclusive: 20.6 µM [inhibitor, partial curve]"}
{"smiles": "COc1ccc(C(=O)N(CC2CCCO2)C(C(=O)NC2CCCC2)c2ccc(Cl)cc2)cc1OC", "note": "(centres undefined)", "Potency": "active: 18.4 µM"}
{"smiles": "CCN(CC(=O)Nc1c(F)cccc1F)C(=O)C1CC1C", "note": "(centres undefined)", "activity change, negative = growth inhibition": "inactive: -25.8%"}
{"smiles": "COc1cc(C(=S)N2CCOCC2)ccc1OC(=O)c1cc([N+](=O)[O-])c(C)c([N+](=O)[O-])c1", "activity change, negative = growth inhibition": "inconclusive: -33.3% [inhibitor]"}
{"smiles": "Cc1nn(Cc2c(F)c(F)c(F)c(F)c2F)c(C)c1NC(=O)c1cccc(COc2ccccc2Cl)c1", "Potency": "inconclusive: 2.31 µM [inhibitor, full curve]"}
{"smiles": "CC1CCN(C(=O)CCNS(=O)(=O)c2ccccc2)CC1", "activity change, negative = growth inhibition": "inactive: 1.87%"}
{"smiles": "O=C(CN1CCC(O)(c2cccc(C(F)(F)F)c2)CC1)NCCc1ccccc1", "Potency": "active: 11.6 µM"}
{"smiles": "NC(=O)c1c(NC(=O)c2ccncc2)sc2c1CCCCCC2", "Potency": "inconclusive: 18.4 µM [inhibitor, single point]"}
{"smiles": "CS(=O)(=O)N(CC(=O)N1CCN(Cc2ccccc2)CC1)c1ccccc1Br", "Potency": "inconclusive: 25.9 µM [inhibitor, single point]"}
{"smiles": "CC1(c2ccc(Cl)cc2)NC(=O)N(CC(=O)NCc2cccs2)C1=O", "note": "(centres undefined)", "activity change, negative = growth inhibition": "inactive: -6.39%"}
{"smiles": "CC(C)(C)C(=O)NC(CC(=O)O)c1ccccc1", "note": "(centres undefined)", "activity change, negative = growth inhibition": "inactive: -13.1%"}
{"smiles": "Cc1ccc(O)c(C2=Nc3ccccc3N=C(c3ccco3)C2)c1", "Potency": "active: 13 µM"}
{"smiles": "CC1CCc2c(sc(NC(=O)c3cccn3C)c2C(N)=O)C1", "note": "(centres undefined)", "Potency": "inconclusive: 20.6 µM [inhibitor, partial curve]"}
{"smiles": "COc1ccc(NS(=O)(=O)c2ccc(OC)c(NC(=O)CCC3CCCCC3)c2)cc1", "Potency": "inconclusive: 9.2 µM [inhibitor, partial curve, poor fit]"}
{"smiles": "O=C(CCCN1CCC(n2c(=S)[nH]c3ccccc32)CC1)c1ccc(F)cc1", "Potency": "inconclusive: 33.5 µM [inhibitor, single point]"}
{"smiles": "Cc1cc(NC(=O)C(Cl)Cl)cc2c1OCO2", "Potency": "inconclusive: 29.1 µM [inhibitor, single point]"}
